From the supplement of paper PMC11125491
± gives the standard deviation of the averaged measurements. Growth of baker's yeast expressing single-residue variants of Pneumocystis jirovecii dihydrofolate reductase in 8.8 or 44 µM methotrexate (about 75% and 90% inhibition of the wild type). Selection coefficient per generation; 0 = like wild type, above 0 = less sensitive, below 0 = more sensitive or loss of function. No active / inactive call per row; the paper calls resistant above 0.220 (8.8 µM) or 0.243 (44 µM) together with a significance test. At 44 µM about 15% of codons end with one read or none, so the lowest values are floors (replicate rank correlation 0.74; 0.94 at 8.8 µM).

B1: UniProt A0EPZ9; numbered along this chain (parent)
chain: MDWQKSLTLIVALTLSRGIGLKNDLPWKLKSDMMFFSRVTSGLLVTRSTGQMNVVLMGRKTWESLPAHSRPLKNRINVVISRQEVLDLGGGAYHARSLDDALALLSQIYDSTSKIQLNRVFVIGGGELCKAAMEHSRLNRIIATVIHNEVDCDVFFPIDFRSSQSCLPWRKQDHSVLEAWVGSKVPQGKINENGFIYEFEMWIRDI

Variants of: B1
Assay: selection coefficient against synonymous wild-type codons (log2 per generation); higher = faster growth than wild type
Conditions: with Saccharomyces cerevisiae carrying the variant on a plasmid
Experimental: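 Pooled growth of yeast carrying single-residue variants of P. jirovecii dihydrofolate reductase (own DFR1 gene intact), two passages at 30 °C, three cultures, sequenced before and after. Codons with under 15 starting reads are left out; codons of one change are averaged.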

Variant | selection coefficient against synonymous wild-type codons (log2) (methotrexate 8.8 µM) | selection coefficient against synonymous wild-type codons (log2) (methotrexate 44 µM)
E63I | -0.5 ± 0.037 | -0.185 ± 0.093
E63Q | -0.307 ± 0.033 | -0.242 ± 0.14
E63M | -0.446 ± 0.021 | -0.308 ± 0.06
E63D | -0.104 ± 0.052 | -0.0821 ± 0.075
E63H | -0.347 ± 0.11 | -0.281 ± 0.044
E63R | -0.476 ± 0.097 | -0.293 ± 0.072
E63V | -0.558 ± 0.071 | -0.268 ± 0.086
E63F | -0.385 ± 0.15 | -0.213 ± 0.026
E63S | -0.399 ± 0.12 | -0.239 ± 0.074
E63L | -0.452 ± 0.13 | -0.273 ± 0.086
E63T | -0.469 ± 0.087 | -0.233 ± 0.069
E63Y | -0.294 ± 0.12 | 0.0133 ± 0.37
E63A | -0.289 ± 0.074 | -0.185 ± 0.14
E63N | -0.406 ± 0.13 | -0.158 ± 0.15
E63W | -0.546 ± 0.035 | -0.256 ± 0.13
E63P | -0.403 ± 0.039 | -0.156 ± 0.051
E63K | -0.163 ± 0.33 | -0.0503 ± 0.3
E63G | -0.63 ± 0.03 | -0.315 ± 0.095
E63C | -0.493 ± 0.17 | -0.288 ± 0.067
R59M | 0.0299 ± 0.058 | -0.152 ± 0.14

Variant | selection coefficient against synonymous wild-type codons (log2) (methotrexate 8.8 µM) | selection coefficient against synonymous wild-type codons (log2) (methotrexate 44 µM)
R59P | -0.00271 ± 0.082 | 0.23 ± 0.059
R59K | 0.0965 ± 0.069 | 0.0157 ± 0.029
R59G | 0.0365 ± 0.031 | 0.0775 ± 0.033
R59F | -0.0168 ± 0.046 | -0.173 ± 0.096
R59L | 0.348 ± 0.027 | 0.377 ± 0.043
R59W | 0.000946 ± 0.067 | 0.044 ± 0.073
R59A | 0.124 ± 0.028 | 0.09 ± 0.076
R59Q | 0.257 ± 0.025 | 0.289 ± 0.03
R59S | -0.0859 ± 0.059 | -0.123 ± 0.11
R59D | -0.0892 ± 0.029 | 0.145 ± 0.1
R59I | 0.243 ± 0.024 | 0.285 ± 0.008
R59Y | 0.0761 ± 0.016 | 0.0724 ± 0.066
R59V | 0.171 ± 0.036 | 0.206 ± 0.05
R59E | 0.201 ± 0.043 | 0.312 ± 0.08
R59T | -0.143 ± 0.087 | -0.135 ± 0.13
R59N | -0.245 ± 0.064 | -0.0811 ± 0.18
R59H | -0.0956 ± 0.069 | -0.0218 ± 0.029
R59C | -0.117 ± 0.12 | -0.0509 ± 0.16
V55W | -0.58 ± 0.036 | -0.333 ± 0.041
V55L | -0.286 ± 0.11 | -0.223 ± 0.12

Variant | selection coefficient against synonymous wild-type codons (log2) (methotrexate 8.8 µM) | selection coefficient against synonymous wild-type codons (log2) (methotrexate 44 µM)
V55D | -0.48 ± 0.031 | -0.274 ± 0.13
V55Q | -0.542 ± 0.066 | -0.295 ± 0.063
V55Y | -0.676 ± 0.06 | -0.295 ± 0.15
V55C | -0.267 ± 0.017 | -0.268 ± 0.043
V55I | -0.166 ± 0.057 | -0.0277 ± 0.033
V55P | -0.536 ± 0.042 | -0.288 ± 0.029
V55N | -0.544 ± 0.071 | -0.254 ± 0.018
V55M | -0.27 ± 0.093 | -0.272 ± 0.067
V55T | -0.531 ± 0.093 | -0.317 ± 0.087
V55R | -0.535 ± 0.062 | -0.301 ± 0.053
V55E | -0.565 ± 0.049 | -0.317 ± 0.057
V55S | -0.512 ± 0.11 | -0.251 ± 0.11
V55K | -0.569 ± 0.05 | -0.321 ± 0.039
V55F | -0.0976 ± 0.045 | 0.163 ± 0.098
V55H | -0.312 ± 0.054 | -0.0641 ± 0.036
V55A | -0.552 ± 0.12 | -0.275 ± 0.12
V55G | -0.469 ± 0.15 | -0.264 ± 0.1
W62R | -0.387 ± 0.11 | -0.197 ± 0.14
